Reference: the supplement of paper PMC11417369
± gives the standard deviation of the averaged measurements. The list shows a part of the results.

Tested on: PfAP2-EXP AP2 domain (GST-tagged)
Assay: gcPBM binding intensity (ln(normalized median fluorescence intensity)); higher = stronger DNA binding
Method in brief: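 Binding of GST-tagged P. falciparum DNA-binding domains, expressed in E. coli and used at about 25 μg on average, was carried out for 1 h in 1× PBS containing 1% milk, 0.2 mg/ml BSA, 0.5% salmon testes DNA and 0.03% Triton X-100. The target was an Agilent 4 × 180k array of primer-extended double-stranded 36-bp intergenic genomic probes plus negative controls, read with Alexa488 anti-GST antibody at 488 nm. Binding intensity is the highest Masliner-normalised natural-log median intensity across replicate spots of either probe orientation.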

Sequence | gcPBM binding intensity (ln)
ATTAATATTTAGACTTGTACATATATAATATATGTC [XGTACX_site3766] | 8.47 ± 0.35
CTTTTTTGTAATAACACACACACAAACAGAAAAAAT [CACACA_site2075] | 9.1 ± 0.57
ATAAAATATCAATACCGTACACAAGCAGGTAAAATA [XGTACX_site3719] | 8.68 ± 0.37
TCCTTTTGAACCCTTTTTCTCACAAGACCTTTATAT [TGCATGCA_negctrl_site413] | 8.79 ± 0.35
TTTCGTTGTGTATTTTGTACATATTTTTAATTATAT [XGTACX_site6687] | 8.89 ± 0.42
TTAAAAAACTATAATACACACCAAAAATATGCACAT [CACACA_site7079] | 8.94 ± 0.32
AATATAAATATAAATTGTACTTAAAAATTTCACGCA [XGTACX_site5234] | 8.19 ± 0.24
TTATTTCAAAGTTGTTGTACAAAAATATATTTATAA [XGTACX_site5226] | 8.63 ± 0.43
TTTCTTTTTTAAATTAAAATTTTTTTTTTTTTCGGT [TGCATGCA_negctrl_site52] | 8.29 ± 0.49
AAGAAAAAGATGCGCATACACACAGATGAATAACAA [CACACA_site1627] | 9.05 ± 0.66
TATATAAATTATGTGAGTACATAATTTAGAAGGAAC [XGTACX_site2807] | 8.93 ± 0.34
AAAGGTGTATTTAATACACACGTGTCATTAAAATTG [CACACA_site4508] | 8.38 ± 0.38
AATTAAAAAGTTTTTAATGTTTTTAATTTTTTCCAC [XGTACX_negctrl_site423] | 8.27 ± 0.33
AAAAAAATAATGTACACACACATATATGTTTATATA [CACACA_site6234] | 8.56 ± 0.31
TAATTATTTTCGGTACGTACTAATGTATATATAATT [XGTACX_site3895] | 8.67 ± 0.42
TAATAATTTTTTTTTTTTTTTTACGAAAATATGATT [GTGCAC_negctrl_site323] | 8.04 ± 0.54
ATAATAAGAACTCAGTGTACTATCCTTTGAATTAAC [XGTACX_site8117] | 8.27 ± 0.33
AACGTCTTTTTTTTTTTTTTTCTTTTTTTTTTTATT [CACACA_negctrl_site303] | 8.3 ± 0.51
AGATATAAGAAAAGCACACACACACTAGAAAAAAAA [CACACA_site5559] | 8.93 ± 0.66
TAATTCTTGTAAAATGTGCGCAGTAGATATAGTTTT | 8.85 ± 0.33
ATAAAATTATATACGTGTACATATATATATTTATGT [XGTACX_site4653] | 8.39 ± 0.31
ATATTTATTCAATCCAGTACATATTATATATTGTAT [XGTACX_site184] | 8.59 ± 0.3

Sequence | gcPBM binding intensity (ln)
CCTTTAAGCAAAAACACACACACATATTTATTTATA [CACACA_site6294] | 8.45 ± 0.46
AATTTTTTTTTTTTGTTGCACTTTTAGAGTTTTAAT [GTGCAC_site9519] | 8.56 ± 0.41
TAATAAATAGGACACACACACATATTTATATATCAT [CACACA_site6771] | 8.66 ± 0.46
ACACATCAAATATAAAAAAAAAATAACTATAAATAA [CACACA_negctrl_site587] | 8.48 ± 0.39
TATAAAAGTGGACACACACACATATATATATATATA [CACACA_site4673] | 10.2 ± 0.64
TTGCAAAATTGTTTTATCACAAATATATACTTAATA [CACACA_negctrl_site403] | 8.19 ± 0.38
AAAAAAAAAAAACACACACACACATACCCATACATA [CACACA_site5575] | 8.57 ± 0.52
TTTCTTTTTATATTCACACATAAATATATATATATA [CACACA_site6053] | 9.81 ± 0.28
ATATAAAAATATAATACACACATAAAATATATTATA [CACACA_site969] | 8.53 ± 0.32
TATATAAGGAAATATTGTACTTTTATATTTATATTA [XGTACX_site3814] | 8.04 ± 0.33
ATAATAATAATAAAAAGTACAAATTATTATATATAT [XGTACX_site5160] | 8.81 ± 0.29
TGTATGCTTACATAATGTACGGAAAAATAAAGGCAT [XGTACX_site6923] | 9.27 ± 0.35
ATATATAAATAATGTTGTACGTATTTCAAAAGTATG [XGTACX_site3363] | 8.53 ± 0.38
TGCTCTCTCTTGTTGTGTACATAATACAATATATAT [XGTACX_site7427] | 9.16 ± 0.3
ATATATTTGTATAATAGTACGTACAGGCAAAATATA [XGTACX_site7396] | 9.23 ± 0.42
TACATTTAAAAAAAAACACACATATATATATATATA [CACACA_site2535] | 10.3 ± 0.33
TTTTATGCGCAATAAGTGCATTTAAAATATATATAT | 9.3 ± 0.31
TCCACTTAACTCAATTGTACAAAAATAAAAATTAAA [XGTACX_site855] | 8.35 ± 0.48
ATAATATATATATATATATTATCAAATATATATATA [GTGCAC_negctrl_site346] | 9.22 ± 0.25
TGTGTATATCGATAAAGTACATTTGAAAAGTGACTT [XGTACX_site6957] | 8.55 ± 0.37
GTAATATGTATCCATACACACATACAGTTTATTTGC [CACACA_site6540] | 8.6 ± 0.28
GTATTAATATATAATTGTACTTTTTTTTTTTTTTTT [XGTACX_site4369] | 8.45 ± 0.29
